Measured values as given in PubChem BioAssay AID493208 (National Center for Advancing Translational Sciences (NCATS), 2011).
About 340 (0.77%) of roughly 44,000 compounds were called active. Another 5% or so got no clear call; they are omitted. The call rests on the fitted dose curve; in most records, active means well fitted inhibition curve with a large enough effect; inconclusive means small, poorly fitted or top-dose-only effect; inactive means flat fitted curve, though single readings scatter. The list shows a part of the results.

Assay: Acumen qHTS Assay for Inhibitors of the mTORC1 Signaling Pathway in MEF (Tsc2-/-, p53-/-) Cells: Sytravon;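 further: plate controls were DMSO for no effect and rapamycin for full effect; nearly all actives have a fitted effect of over 50% in size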
Details: phospho-rpS6 immunofluorescence/PI, 24 h; series mostly up to 38.3 µM; activity change, negative = inhibition: at the top concentration
Method in brief: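 Read-out: phospho-S6 Alexa-488 intensity over PI intensity per well, scored as % active cells using thresholds from rapamycin (7.5 nM) and DMSO controls. Tsc2-/-, p53-/- MEFs exposed to compound for 24 h; PI cell count recorded as viability.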

Activity change, negative = inhibition, inactive:
CC1=C(C(=O)Nc2ccccc2C)C(c2ccncc2)n2nc(SCc3ccccc3Cl)nc2N1 (stereo unspecified) 3.25%
COc1ccc(S(=O)(=O)Nc2cccc(-c3ccc(N4CCC(C)CC4)nn3)c2)cc1OC -5.77%
Cc1cccc(-c2noc(-c3ccccc3NC(=O)C3CC(=O)N(c4ccccc4C)C3)n2)c1 (stereo unspecified) 0.217%
CCn1c(=O)c2cc(C(=O)Nc3cc(OC)c(OC)c(OC)c3)sc2c2ccccc21 -10.5%
Cn1ccc2cc(S(=O)(=O)N3CCCC(C(=O)NCc4ccccc4)C3)ccc21 (stereo unspecified) -1.97%
O=C(COc1ccc(F)cc1)OCc1cc(=O)n2nc(C3CCCCC3)sc2n1 2.96%
Cc1cc(-c2ccc(C)c(S(=O)(=O)NC(c3cccs3)C(C)C)c2)on1 (stereo unspecified) -7.37%
O=C(NCCS(=O)(=O)N1CCN(c2ccccc2)CC1)C1CC(=O)N(c2ccc(F)cc2)C1 (stereo unspecified) 0.463%
COc1ccc(NC(=O)CCSc2nc(-c3ccc(OC)cc3)cc(C(F)(F)F)n2)cc1 -0.0207%
CCc1nnc(SCc2c(F)cccc2Cl)c2cc3sccc3n12 -2.12%
CC(C)CCNC(=O)c1ccc2c(c1)NC(=O)C(CS(=O)(=O)Cc1ccc(F)cc1)N2 (stereo unspecified) 3.74%
Cc1ccc(NC(=O)Cn2cc(C(=O)C3CC3)c3ccccc32)c(C)c1 -0.324%
CC1=C(C(=O)N2CCN(c3cc(C)ccc3C)CC2)C2(CCC(C)CC2)OC1=O (stereo unspecified) -11.4%
COc1ccc(C(C(=O)NCc2ccccc2)N(C(=O)Cn2nnc3ccccc32)c2cccc(OC)c2)cc1 (stereo unspecified) -3.8%
CCOC(=O)c1cccc(NC(=O)CCc2nc3cccnc3n2-c2ccccc2)c1 -22.6%
CCOc1ccc(NC(=O)C2(c3cccs3)CCOCC2)cc1 3.28%
Cc1cc(C)c2sc(NC(=O)c3ccc(S(=O)(=O)N4CCCC4)cc3)nc2c1 8.42%
COc1ccccc1C(=O)Nc1nc2nc(C)cc(=O)n2[nH]1 0.999%
CCOC(=O)c1c(C)oc2ccc(N(C(=O)c3ccncc3)S(=O)(=O)c3ccc(CC)cc3)cc12 -11.2%
COc1ccc(OC)c(S(=O)(=O)Nc2ccc3c(c2)n(C)c(=O)n3C)c1 -20.1%
O=C(CN1C(=O)COc2ccc(S(=O)(=O)NC3CCCC3)cc21)Nc1ccc(Cl)cc1F -8.11%
CCOC(=O)c1c(C)[nH]c(CCC(=O)Nc2cc(Cl)ccc2OC)c1C -17.7%
CCc1ccc(NC(=O)c2nc3nc(C)cc(C(F)F)n3n2)cc1 -8.27%
CN(C)S(=O)(=O)N(CC(=O)Nc1ccc(C(F)(F)F)cc1)c1ccccc1 0.291%
Cc1ccc(OCCSc2nc3ccc(NC(=O)c4cccs4)cc3s2)cc1 -9.22%
Cc1ccc(S(=O)(=O)N2CC=C(c3c(C)n(CC(=O)N4CCCC4)c4ccccc34)CC2)cc1C -12.4%
